± gives the standard error. Variants at the background level are over-represented here.
B1: glmS ribozyme (parent)
chain: AUAAAAGCGCCAGAACUACAGAAAUGUAGUUGACGAGGAGGAGGUUUAUCGAAUUUUCGGCGGAUGCCUCCAAA

Key:
Settings in all cases: with glucosamine-6-phosphate
[1] = variants of: B1; test: self-cleavage kobs at 640 uM GlcN6P; higher = faster cleavage; RNA array
Summary of the method: (§1)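 Tiles bearing barcoded ribozyme variants, transcribed in situ by E. coli RNA polymerase on sequenced MiSeq chips, were imaged over ~14 h at 37 °C using a hybridised Cy3 probe. Glucosamine-6-phosphate was supplied at 40 μM to 10 mM in HEPES/KCl/Mg(OAc)2 buffer. kobs came from one- or two-exponential decay fits to normalised per-tile medians, and weighted Michaelis–Menten fits then provided kcat and KM.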

[2] = variants of: B1; test: self-cleavage kobs at 160 uM GlcN6P; higher = faster cleavage; RNA array
Summary of the method: as §1

[3] = variants of: B1; test: self-cleavage kobs at 2500 uM GlcN6P; higher = faster cleavage; RNA array
Summary of the method: as §1

[4] = variants of: B1; test: self-cleavage kobs at 10000 uM GlcN6P; higher = faster cleavage; RNA array
Summary of the method: as §1

Row | Variant | self-cleavage kobs at 640 uM GlcN6P [1] | self-cleavage kobs at 160 uM GlcN6P [2] | self-cleavage kobs at 2500 uM GlcN6P [3] | self-cleavage kobs at 10000 uM GlcN6P [4]
1 | C8A C61A | < 1e-05 s⁻¹ | < 1e-05 s⁻¹ | < 1e-05 s⁻¹ | 
2 | C8A G29A G41U G44U U57C | < 1e-05 s⁻¹ |  |  | 
3 | C8A G29U | < 1e-05 s⁻¹ | < 1e-05 s⁻¹ | < 1e-05 s⁻¹ | < 1e-05 s⁻¹
4 | C8A G32A G66A | < 1e-05 s⁻¹ | < 1e-05 s⁻¹ | < 1e-05 s⁻¹ | 
5 | C8A G41A G51U G63C | < 1e-05 s⁻¹ | < 1e-05 s⁻¹ | < 1e-05 s⁻¹ | 
6 | C8A U30C G40A | < 1e-05 s⁻¹ |  | < 1e-05 s⁻¹ | < 1e-05 s⁻¹
7 | C8A U30G G40C | < 1e-05 s⁻¹ |  | < 1e-05 s⁻¹ | 
8 | C8A U31A C34U G60C | < 1e-05 s⁻¹ |  |  | 
9 | C8G A12C G37A | < 1e-05 s⁻¹ |  | < 1e-05 s⁻¹ | 
10 | C8G A42U U46A A53U | < 1e-05 s⁻¹ |  |  | 
11 | C8G A53G | < 1e-05 s⁻¹ | < 1e-05 s⁻¹ | < 1e-05 s⁻¹ | 
12 | C8G G41A A53U | < 1e-05 s⁻¹ |  | < 1e-05 s⁻¹ | 
13 | C8G G51C U69A C70U | < 1e-05 s⁻¹ |  | < 1e-05 s⁻¹ | 
14 | C8G U30G G63C | < 1e-05 s⁻¹ | < 1e-05 s⁻¹ | < 1e-05 s⁻¹ | 
15 | C8U C10G G29C U31C G51U | < 1e-05 s⁻¹ |  | < 1e-05 s⁻¹ | 
16 | C8U C11G G41A A52G G60U G63A | < 1e-05 s⁻¹ | < 1e-05 s⁻¹ |  | 
17 | C8U C11G U31A | < 1e-05 s⁻¹ |  |  | 
18 | C8U G9U A53U | < 1e-05 s⁻¹ | < 1e-05 s⁻¹ |  | 
19 | C8U G32A U45A U56C | < 1e-05 s⁻¹ | < 1e-05 s⁻¹ | < 1e-05 s⁻¹ | < 1e-05 s⁻¹

Row | Variant | self-cleavage kobs at 640 uM GlcN6P [1] | self-cleavage kobs at 160 uM GlcN6P [2] | self-cleavage kobs at 2500 uM GlcN6P [3] | self-cleavage kobs at 10000 uM GlcN6P [4]
20 | C8U G44U A48C | < 1e-05 s⁻¹ |  | < 1e-05 s⁻¹ | 
21 | C8U G62A C70U | 6.07e-05 ± 2.6e-05 s⁻¹ |  |  | 
22 | G9A A36G G63A C67U U69C | < 1e-05 s⁻¹ |  | < 1e-05 s⁻¹ | 
23 | G9A A52G C61A | < 1e-05 s⁻¹ | < 1e-05 s⁻¹ | < 1e-05 s⁻¹ | 
24 | G9A C16U G41A A48U | < 1e-05 s⁻¹ | < 1e-05 s⁻¹ | < 1e-05 s⁻¹ | < 1e-05 s⁻¹
25 | G9A C16U G44U | < 1e-05 s⁻¹ |  | < 1e-05 s⁻¹ | 
26 | G9A C16U U30C U55G | < 1e-05 s⁻¹ |  | < 1e-05 s⁻¹ | 
27 | G9A G32A A42G | < 1e-05 s⁻¹ |  | < 1e-05 s⁻¹ | 
28 | G9A G32C C67U | < 1e-05 s⁻¹ | < 1e-05 s⁻¹ |  | 
29 | G9A G38U U46C G62U A64U | < 1e-05 s⁻¹ |  |  | 
30 | G9A G63U | < 1e-05 s⁻¹ |  | < 1e-05 s⁻¹ | 
31 | G9C A15G G38C G60A | < 1e-05 s⁻¹ |  | < 1e-05 s⁻¹ | 
32 | G9C A33C G44C C70A | < 1e-05 s⁻¹ |  | < 1e-05 s⁻¹ | 
33 | G9C A64G C71A | < 1e-05 s⁻¹ |  | < 1e-05 s⁻¹ | 
34 | G9C C10U U30A | < 1e-05 s⁻¹ | < 1e-05 s⁻¹ | < 1e-05 s⁻¹ | 
35 | G9C G35U C50U A64C | < 1e-05 s⁻¹ |  |  | 
36 | G9U A14G G60C G63C | < 1e-05 s⁻¹ |  | < 1e-05 s⁻¹ | 
37 | G9U A14U G35A | < 1e-05 s⁻¹ | < 1e-05 s⁻¹ | < 1e-05 s⁻¹ | 
38 | G9U A22C | < 1e-05 s⁻¹ |  |  | 

Row | Variant | self-cleavage kobs at 640 uM GlcN6P [1] | self-cleavage kobs at 160 uM GlcN6P [2] | self-cleavage kobs at 2500 uM GlcN6P [3] | self-cleavage kobs at 10000 uM GlcN6P [4]
39 | G9U A42U C50A | < 1e-05 s⁻¹ |  |  | 
40 | G9U C10A A33U | < 1e-05 s⁻¹ |  | < 1e-05 s⁻¹ | 
41 | G9U C10U G35C | < 1e-05 s⁻¹ |  |  | 
42 | G9U C16A G38U | < 1e-05 s⁻¹ |  | < 1e-05 s⁻¹ | 
43 | G9U G32C C34G C58U C68G | 0.000182 ± 7.9e-05 s⁻¹ |  |  | 
44 | G9U G40A C61G | < 1e-05 s⁻¹ |  |  | 
45 | G9U G41C U47G | < 1e-05 s⁻¹ | < 1e-05 s⁻¹ | < 1e-05 s⁻¹ | 
46 | C10A A14G G35A A52U | < 1e-05 s⁻¹ |  | < 1e-05 s⁻¹ | 
47 | C10A A15G G35U G41U | < 1e-05 s⁻¹ |  | < 1e-05 s⁻¹ | 
48 | C10A C11G G35C G44C | < 1e-05 s⁻¹ |  | < 1e-05 s⁻¹ | 
49 | C10A C16U G35A | < 1e-05 s⁻¹ |  | < 1e-05 s⁻¹ | 
50 | C10A C67U C68U | 0.000489 ± 0.00014 s⁻¹ |  |  | 
51 | C10A G29A A64U | < 1e-05 s⁻¹ |  | < 1e-05 s⁻¹ | 
52 | C10G A12U G62A | < 1e-05 s⁻¹ | < 1e-05 s⁻¹ | < 1e-05 s⁻¹ | < 1e-05 s⁻¹
53 | C10G A14U A48C | < 1e-05 s⁻¹ |  | < 1e-05 s⁻¹ | 
54 | C10G A48G | < 1e-05 s⁻¹ |  | < 1e-05 s⁻¹ | < 1e-05 s⁻¹
55 | C10G C11A C58G G63U C68A | 0.000138 ± 3.5e-05 s⁻¹ |  | 0.000117 ± 3.3e-05 s⁻¹ | 
56 | C10G G37C G43A | < 1e-05 s⁻¹ |  |  | 
57 | C10G G40A C50A | < 1e-05 s⁻¹ | < 1e-05 s⁻¹ | < 1e-05 s⁻¹ | < 1e-05 s⁻¹
